The text below walks through data of paper PMC6415948 (ACS chemical biology, 2018).

By Kd is commonly meant a measure of binding affinity in units of concentration.

This assay addresses Human IgG1 Fc, G0F N-glycan (agalactosylated, core-fucosylated) (human, G0F N-glycan at Asn297). The experiment in a line: SPR.

B1: CD16a N45Q, Man5 glycoform (receptor)
chain: not shown
modifications: Man5 oligomannose N-glycans at the remaining N-glycosylation sites (Asn38, Asn74, Asn162, Asn169)
B1 came in with a Kd of 32 ± 4 nM.

B2: CD16a N45Q/N162Q, Man5 glycoform (receptor)
chain: not shown
modifications: Man5 oligomannose N-glycans at the remaining N-glycosylation sites (Asn38, Asn74, Asn169)
B2: the Kd came to 290 ± 10 nM.
